Reference: paper PMC4336329 (PLoS ONE, 2015)
About 2,200 (0.71%) of roughly 310,000 compounds showed an effect of 50% or more. Effects have a minus sign here. This is one part of the list.

The compounds below were run against human ether-à-go-go-related gene (hERG) potassium channel (human, UniProt Q12809) (assay: primary screen, population patch clamp on CHO cells stably expressing hERG).
human ether-à-go-go-related gene (hERG) potassium channel, sequence (Q12809 whole entry, looked up): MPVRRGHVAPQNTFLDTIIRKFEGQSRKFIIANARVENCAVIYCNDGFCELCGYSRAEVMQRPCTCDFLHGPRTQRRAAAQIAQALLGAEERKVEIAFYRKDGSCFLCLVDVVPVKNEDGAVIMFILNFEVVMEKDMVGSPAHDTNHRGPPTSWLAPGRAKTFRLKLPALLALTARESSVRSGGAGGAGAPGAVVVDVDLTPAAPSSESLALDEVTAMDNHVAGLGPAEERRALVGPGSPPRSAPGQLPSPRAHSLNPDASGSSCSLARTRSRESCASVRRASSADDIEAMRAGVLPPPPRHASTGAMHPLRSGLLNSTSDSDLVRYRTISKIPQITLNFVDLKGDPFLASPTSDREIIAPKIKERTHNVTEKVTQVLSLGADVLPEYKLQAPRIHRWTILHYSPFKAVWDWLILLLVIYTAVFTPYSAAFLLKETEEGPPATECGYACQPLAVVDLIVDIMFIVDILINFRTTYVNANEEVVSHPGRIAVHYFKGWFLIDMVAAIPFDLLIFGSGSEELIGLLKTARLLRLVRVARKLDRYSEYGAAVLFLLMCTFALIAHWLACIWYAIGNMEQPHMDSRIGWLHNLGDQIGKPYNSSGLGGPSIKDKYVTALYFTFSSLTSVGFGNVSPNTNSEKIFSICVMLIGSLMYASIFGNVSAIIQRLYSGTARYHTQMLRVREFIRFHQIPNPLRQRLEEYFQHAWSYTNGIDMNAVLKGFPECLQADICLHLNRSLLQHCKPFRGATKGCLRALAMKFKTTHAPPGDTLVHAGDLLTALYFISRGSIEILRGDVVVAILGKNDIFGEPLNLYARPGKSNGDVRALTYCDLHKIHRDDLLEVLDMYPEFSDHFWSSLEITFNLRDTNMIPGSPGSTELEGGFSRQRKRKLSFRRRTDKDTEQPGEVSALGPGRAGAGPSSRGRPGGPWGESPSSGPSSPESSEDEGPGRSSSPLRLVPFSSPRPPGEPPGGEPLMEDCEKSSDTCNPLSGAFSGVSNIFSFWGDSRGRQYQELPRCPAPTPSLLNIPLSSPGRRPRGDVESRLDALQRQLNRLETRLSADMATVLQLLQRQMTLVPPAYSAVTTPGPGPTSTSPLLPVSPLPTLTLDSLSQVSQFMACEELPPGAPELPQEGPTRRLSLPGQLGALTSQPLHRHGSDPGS

| SMILES | hERG current change (%, negative = inhibition) at 1uM [%] |
| --- | --- |
| CC1CCN(CC#CCOc2ccc(Cl)cc2)CC1.O=C(O)C(=O)O | 15.7 |
| C=CCc1cccc(/C=N/NC(=O)CCC(=O)Nc2ccc(F)cc2)c1O | 12.6 |
| C=CCc1ccccc1OCCCCN1CCCC1 | -7.92 |
| CCN(c1cccc(C)c1)S(=O)(=O)c1cccc(C(=O)O)c1 | 8.43 |
| O=C(N1CCNCC1)N1CCOCC1 | -5.61 |
| CC(=O)NC1CC2CCCC(C1)N2C(=O)Nc1ccccc1 (centres unmarked) | 11.4 |
| O=C(COc1ccc2ccccc2c1Br)N1CCOCC1 | -3.24 |
| Cc1ccc(NC(=O)c2cccc(C(F)(F)F)c2)cc1NC(=O)c1[nH]cnc1C(N)=O | 10.5 |
| CCOCCCNC(=O)C1CCN(S(=O)(=O)c2ccc3nc4c(c(C(=O)O)c3c2)CCCCC4)CC1 | 55.5 |
| Cc1ccc(S(=O)(=O)N2CCN(C(=O)COc3ccc(C)nc3[N+](=O)[O-])CC2)c(C)c1 | 6.8 |
| Cc1ccc(N(CC(=O)NC2CCCC2)C(=O)c2c(C)noc2C)cc1C | 17.5 |
| CCN(CC)c1ccc(/C=N/NC(=O)c2ccoc2C)cc1 | 2.4 |
| CONc1nc(NC(C)(C)C)nc(OCC#N)n1 | 7.46 |
| CC(=O)Nc1ccccc1OCC(=O)c1ccc2c(c1)OCO2 | 5.93 |
| CCN=C1NN=C(c2c[nH]c3ccccc23)CS1 | 1.9 |
| COc1ccc(NC(=O)c2cc3c([nH]c4ccccc43)c(C)n2)cc1 | 13.9 |
| Cc1nc2ccccc2c(=O)n1NC(=O)/C=C/c1ccc(Br)cc1 | 2.25 |
| Cc1cc(N2CCN(C)CC2)nc2ccc(NC(=O)CCC(=O)NCc3ccco3)cc12 | 4.12 |
| CN(C)C(=O)c1ccc(NC(=O)COC(=O)/C=C/c2cccs2)cc1 | 11.3 |
| O=C(O)C(=O)O.OC(CNC1CCCc2ccccc21)COc1ccc2ccccc2c1 (centres unmarked) | -15.8 |
| CCOC(=O)c1nc(NCc2ccccc2)sc1C | 16.6 |
| CCCOc1ccc(-c2nnn(CC(=O)OCC)n2)cc1 | 0.429 |
| COc1cccc(/C=N\NC(=O)c2ccc(Cn3cc(Br)c([N+](=O)[O-])n3)o2)c1O | 12.8 |

| SMILES | hERG current change (%, negative = inhibition) at 1uM [%] |
| --- | --- |
| Cc1c(Cl)c([N+](=O)[O-])nn1Cc1ccc(C(=O)N/N=C\c2ccccn2)o1 | -1.35 |
| COc1cc(S(=O)(=O)N2CCOCC2)ccc1NC(=O)COC(=O)c1ccccn1 | 0.143 |
| Cc1nn(C)c(C)c1CNC(=O)c1cnn2c1NC(c1ccccc1)CC2C(F)(F)F (centres unmarked) | 6.62 |
| CC(C)(C)OC(=O)N[C@@H](Cc1ccccc1)C(=O)NCC1CCC(C(=O)N[C@@H](CCC(N)=O)C(=O)O)CC1 (some centres unmarked) | 14.8 |
| N#Cc1cccc(NC(=O)COC(=O)CCc2ccc(S(=O)(=O)N3CCOCC3)cc2)c1 | -35 |
| COc1ccc(OCCCC(=O)OC(C)C(=O)Nc2cccc(C(C)=O)c2)cc1 (centres unmarked) | 9.8 |
| CC(C)Oc1ccc(CNC(=O)Oc2ccccc2)cc1 | 19.8 |
| O=C(COc1cc2oc(=O)c3c(c2cc1Cl)CCC3)NCc1ccccn1 | 2.14 |
| Cc1ccc(CCNC(=O)C23C[C@H]4C[C@@H](C2)CC(n2nnc(C)n2)(C4)C3)cc1 | 5.5 |
| COc1ccc(S(=O)(=O)N(CC(=O)Nc2ccc(S(=O)(=O)N3CCOCC3)cc2)Cc2ccc(F)cc2)cc1 | 11.7 |
| Cc1ccc(NS(=O)(=O)c2cccc(C(=O)N3CCN(C(=O)c4ccco4)CC3)c2)cc1 | -0.237 |
| O=C(C1=NN(c2ccccc2)C2C(=O)N(c3ccccc3)C(=O)C12)c1ccccc1 (centres unmarked) | 2.16 |
| CCCNC(=O)COC(=O)c1ccccc1OCc1ccc(Cl)cc1 | 3.69 |
| COCCn1cnc2c1c(=O)n(CC(=O)OCC#N)c(=O)n2Cc1ccccc1 | 6.93 |
| CNC(=S)NNc1nncc2ccccc12 | 4.69 |
| COc1ccc(OC)c(N2C(=O)C(Cl)=C(N3CCOCC3)C2=O)c1 | 2.59 |
| CCOc1ccc(N(C(=O)c2snc(C(N)=O)c2N)C(C)C(=O)NC2CCCCC2)cc1 (centres unmarked) | 12.5 |
| COc1ccc(C(C)=O)cc1COC(=O)CCNS(=O)(=O)c1ccc(C)c(C)c1 | 8.87 |
| CCSc1nnc(NC(=O)[C@@H](NC(=O)c2ccc(C(C)(C)C)cc2)C(C)C)s1 | 6.78 |
| O=C(CN1CCOc2ccccc21)NCc1ccccc1 | 4.24 |
| O=C1CC(c2ccccc2)Sc2nc3ccccc3n21 (centres unmarked) | 0.594 |
| COc1cccc(-n2nc(-c3ccnn3-c3ccc(C)cc3)c(=O)n(C)c2=O)c1 | 11 |
| Cc1nnc(NC(=O)CCC(=O)N2CCC(C)CC2)s1 | 12.2 |

| SMILES | hERG current change (%, negative = inhibition) at 1uM [%] |
| --- | --- |
| COc1ccc2nc(SCC(=O)NCCc3ccccc3)[nH]c2c1 | -1.17 |
| CCN(CC)S(=O)(=O)c1nnc(NC(=O)c2ccco2)s1 | 15 |
| COc1cc([N+](=O)[O-])ccc1N/C=C/C(=O)c1cccs1 | 2.88 |
| CCCCN(C(=O)c1cccc(S(=O)(=O)N(C)c2ccc(C)cc2)c1)c1c(N)n(CCCC)c(=O)[nH]c1=O | 4.53 |
| CN1CCN(CP(=O)(N2CCOCC2)N2CCOCC2)CC1 | 0.225 |
| Cn1nnnc1SCC(=O)NC1CCCC1 | 10.5 |
| COC(=O)C1CCN(Cc2ccc(C)cc2)CC1 | -3.74 |
| O=C1C2C3C=CC(C3)C2C(=O)N1CCN1CCN(S(=O)(=O)/C=C/c2ccccc2)CC1 (centres unmarked) | 11 |
| Cn1nc(C(F)(F)F)c(/C=N/OC(=O)c2ccccc2Cl)c1SCc1ccc(Cl)cc1 | 2.65 |
| CCN(CC)CCNC(=O)c1c(O)c2ccccc2n(Cc2ccccc2)c1=O.Cl | -9.37 |
| CCCc1nc2ccccc2c(=O)n1-c1ccc(O)cc1 | 19 |
| Cc1ccc(-c2nn(-c3ccccc3)cc2CSC(=N)N)cc1.Cl | 10.3 |
| CC(=O)Nc1nc(SCC(=O)NCc2ccc(F)cc2)[nH]c(=O)c1NC(=O)c1cccs1 | 7.11 |
| Cc1ccccc1-c1nnc(-c2ccc(Cl)cc2)o1 | 12 |
| CN(Cc1n[nH]c(=S)n1C)S(=O)(=O)c1ccccc1 | 15.7 |
| COc1ccc(O)c(/C=N/NC(=O)CCC(=O)Nc2ccc(C)cc2)c1 | 9.41 |
| CN1CCN(C2=C(Cl)C(=O)N(CCc3ccccc3)C2=O)CC1 | 17.7 |
| CN(CC(=O)OCC(=O)NCc1ccccc1)S(=O)(=O)c1ccc(F)cc1 | 5.48 |
| COc1ccc(NS(=O)(=O)c2cccc3nsnc23)cc1OC | 9.49 |
| CCOC(=O)C1CCN(C(=O)Cn2cccc2C(=O)c2ccccc2)CC1 | 18.7 |
| C1CN(CC2CCN(c3nc4nonc4nc3N3CCSCC3)CC2)CCO1 | 10.8 |
| CCOC(=O)c1c(C)n(CCNC(C)=O)c2ccc(O)cc12 | 15.9 |
| CC(=O)c1cc2c(cc1NC(=O)CSc1nc3ccccc3o1)OCO2 | 10.3 |

| SMILES | hERG current change (%, negative = inhibition) at 1uM [%] |
| --- | --- |
| CC(=O)N(Cc1ccc2c(c1)OCO2)C1CC(=O)N(CCc2ccccc2)C1=O (centres unmarked) | 8.14 |
| COc1cc2c(cc1OC)CN(C(=O)CCN1C(=O)C3CCCCC3C1=O)CC2 (centres unmarked) | 10.4 |
| CC(C)CCOc1ccc(/C=N/N2C(=O)CSC2=S)cc1 | 9.04 |
| CCCCN(C(=O)c1cccs1)C1CCS(=O)(=O)C1 (centres unmarked) | -6.95 |
| CC(=O)c1ccc(OCC(O)CN2CCc3ccccc3C2)cc1.Cl (centres unmarked) | -17.3 |
| CCc1ccc2nc(N3C(=O)c4oc5ccccc5c(=O)c4C3c3ccc(OC)c(OC)c3)sc2c1 (centres unmarked) | 18 |
| CCOc1ccccc1NC(=O)COC(=O)C1CC1 | 8.86 |
| Cc1ccc(NC(=O)C(NS(=O)(=O)c2cccc3nsnc23)C(C)C)nc1 (centres unmarked) | 6.99 |
| Cc1nc2ccccc2n1C(C)c1ccccc1 (centres unmarked) | 11.9 |
| OCC1(CCc2ccccc2)CCCN(CCCC(F)(F)F)C1 (centres unmarked) | -13.2 |
| CC1CC(C(F)(F)C(F)(F)F)n2nc(C(=O)O)cc2N1 (centres unmarked) | 4.91 |
| CCN(CC)S(=O)(=O)c1ccc2c(c1)N(CC(=O)N(CCc1ccncc1)C(C)C)C(=O)CO2 | -13.5 |
| C=CCc1cccc2cc(C(=O)N3CCOCC3)c(=O)oc12 | 9.2 |
| OCC[C@@H]1C[C@H](O)[C@@H](O)[C@@]2(CCCCO2)O1 | 8 |
| O=C(Nc1cccc(Cl)c1N1CCCC1)c1cc2ccccc2o1 | 7.01 |
| CN1CCN(C2=NC(=O)/C(=C/c3cn[nH]c3-c3ccccc3)S2)CC1 | 13.9 |
| CCOc1ccccc1NC(=O)NNS(=O)(=O)c1ccc([N+](=O)[O-])cc1 | 1.81 |
| CCOC(=O)N1CCN(CC(O)COc2c(C)cccc2C)CC1.Cl (centres unmarked) | 5.97 |
| Brc1ccc2c(c1)C(c1cccnc1)=NNC(c1cccs1)=N2 | -4.52 |
| O=C(/C=C/c1ccc(O)c(O)c1)c1ccccc1O | 6.73 |
